The other results are listed elsewhere or left out. Cut-off read from the data, not from the text of the source: active = 3.2 or more and inactive = the rest. The signal is at background level for most entries.
These binders were tested against SHP2 C-SH2 domain E139D (assay: enrichment score (SH2-bound / input frequency) (ratio); bacterial display of known human phosphotyrosine sites (pTyr-Var adds point mutants) read by sequencing; higher = stronger binding; tyrosines were phosphorylated by kinases first). Settings: peptide library: pTyr-Var.
RGDTVYTVNCM [KBTBD13_Y404_R408C] was tested, and the enrichment score was inactive: 0.978.
In the case of VVQGLYKSMPK [KBTBD2_Y250], the enrichment score is reported as inactive: 0.928.
VSNFNYFYHRE [KCNA1_Y413] was tested, and the enrichment score was inactive: 1.33.
For VSNFNYFFHRE [KCNA1_Y413_YF], the enrichment score was inactive: 1.92.
In the case of DPYHVYIKNRV [KCNE3_Y95], the enrichment score is reported as inactive: 0.923.
For DPFHVYIKNRV [KCNE3_Y95_YF], the enrichment score was inactive: 1.06.
In the case of SQGRQYQELPR [KCNH2_Y1009_R1005Q], the enrichment score is reported as inactive: 0.522.
In the case of SRGHQYQELPR [KCNH2_Y1009_R1007H], the enrichment score is reported as inactive: 0.973.
In the case of NFRTIYVNANE [KCNH2_Y475_T474I], the enrichment score is reported as inactive: 2.04.
NFRTTYINANE [KCNH2_Y475_V476I] was tested, and the enrichment score was inactive: 0.962.
In the case of NFRTTCVNANE [KCNH2_Y475_Y475C], the enrichment score is reported as inactive: 0.804.
SIKDKYVTVLF [KCNH2_Y611_A614V_YF] was tested, and the enrichment score was inactive: 1.53.
SIKGKYVTALY [KCNH2_Y611_D609G] was tested, and the enrichment score was inactive: 0.824.
SIKNKYVTALY [KCNH2_Y611_D609N] was tested, and the enrichment score was inactive: 1.34.
With SIKDKYVTAFF [KCNH2_Y611_L615F_YF] the enrichment score was inactive: 0.827.
In the case of SIKDKYVTAVY [KCNH2_Y611_L615V], the enrichment score is reported as inactive: 0.708.
SIKDKYLTALF [KCNH2_Y611_V612L_YF] was tested, and the enrichment score was inactive: 1.18.
With SIKDKHVTALY [KCNH2_Y611_Y611H] the enrichment score was inactive: 0.644.
With SIKDKHVTALF [KCNH2_Y611_Y611H_YF] the enrichment score was inactive: 0.58.

These binders were tested against SHP2 C-SH2 domain wild-type in the same assay as above. Settings: peptide library: pTyr-Var.
With RGDTVYTVNCM [KBTBD13_Y404_R408C] the enrichment score was inactive: 1.28.
With VVQGLYKSMPK [KBTBD2_Y250] the enrichment score was inactive: 0.874.
With VSNFNYFYHRE [KCNA1_Y413] the enrichment score was inactive: 1.55.
With VSNFNYFFHRE [KCNA1_Y413_YF] the enrichment score was inactive: 1.56.
For DPYHVYIKNRV [KCNE3_Y95], the enrichment score was inactive: 0.825.
With DPFHVYIKNRV [KCNE3_Y95_YF] the enrichment score was inactive: 0.709.
SQGRQYQELPR [KCNH2_Y1009_R1005Q] was tested, and the enrichment score was inactive: 0.715.
SRGHQYQELPR [KCNH2_Y1009_R1007H] was tested, and the enrichment score was inactive: 0.679.
NFRTIYVNANE [KCNH2_Y475_T474I] was tested, and the enrichment score was active: 4.32.
With NFRTTYINANE [KCNH2_Y475_V476I] the enrichment score was inactive: 0.996.
NFRTTCVNANE [KCNH2_Y475_Y475C] was tested, and the enrichment score was inactive: 0.917.
In the case of SIKDKYVTVLF [KCNH2_Y611_A614V_YF], the enrichment score is reported as inactive: 3.18.
For SIKGKYVTALY [KCNH2_Y611_D609G], the enrichment score was inactive: 0.706.
With SIKNKYVTALY [KCNH2_Y611_D609N] the enrichment score was inactive: 0.661.
With SIKDKYVTAFF [KCNH2_Y611_L615F_YF] the enrichment score was inactive: 0.755.
In the case of SIKDKYVTAVY [KCNH2_Y611_L615V], the enrichment score is reported as inactive: 0.712.
With SIKDKYLTALF [KCNH2_Y611_V612L_YF] the enrichment score was inactive: 1.17.
For SIKDKHVTALY [KCNH2_Y611_Y611H], the enrichment score was inactive: 0.777.
With SIKDKHVTALF [KCNH2_Y611_Y611H_YF] the enrichment score was inactive: 0.567.

Each binder was assayed against SHP2 N-SH2 domain L43F in the same assay as above. Settings: peptide library: pTyr-Var.
For RGDTVYTVNCM [KBTBD13_Y404_R408C], the enrichment score was inactive: 1.05.
For VVQGLYKSMPK [KBTBD2_Y250], the enrichment score was inactive: 0.72.
In the case of VSNFNYFYHRE [KCNA1_Y413], the enrichment score is reported as inactive: 1.12.
With VSNFNYFFHRE [KCNA1_Y413_YF] the enrichment score was inactive: 1.51.
In the case of DPYHVYIKNRV [KCNE3_Y95], the enrichment score is reported as inactive: 0.684.
With DPFHVYIKNRV [KCNE3_Y95_YF] the enrichment score was inactive: 0.813.
In the case of SQGRQYQELPR [KCNH2_Y1009_R1005Q], the enrichment score is reported as inactive: 0.603.
SRGHQYQELPR [KCNH2_Y1009_R1007H] was tested, and the enrichment score was inactive: 0.722.
For NFRTIYVNANE [KCNH2_Y475_T474I], the enrichment score was inactive: 1.86.
NFRTTYINANE [KCNH2_Y475_V476I] was tested, and the enrichment score was inactive: 1.1.
For NFRTTCVNANE [KCNH2_Y475_Y475C], the enrichment score was inactive: 0.907.
SIKDKYVTVLF [KCNH2_Y611_A614V_YF] was tested, and the enrichment score was active: 4.72.
With SIKGKYVTALY [KCNH2_Y611_D609G] the enrichment score was inactive: 0.673.
SIKNKYVTALY [KCNH2_Y611_D609N] was tested, and the enrichment score was inactive: 0.822.
In the case of SIKDKYVTAFF [KCNH2_Y611_L615F_YF], the enrichment score is reported as active: 6.13.
In the case of SIKDKYVTAVY [KCNH2_Y611_L615V], the enrichment score is reported as inactive: 0.873.
For SIKDKYLTALF [KCNH2_Y611_V612L_YF], the enrichment score was inactive: 1.09.
In the case of SIKDKHVTALY [KCNH2_Y611_Y611H], the enrichment score is reported as inactive: 0.65.
With SIKDKHVTALF [KCNH2_Y611_Y611H_YF] the enrichment score was inactive: 0.632.

These binders were tested against SHP2 N-SH2 domain T42A in the same assay as above. Settings: peptide library: pTyr-Var.
For RGDTVYTVNCM [KBTBD13_Y404_R408C], the enrichment score was inactive: 0.945.
In the case of VVQGLYKSMPK [KBTBD2_Y250], the enrichment score is reported as inactive: 1.07.
For VSNFNYFYHRE [KCNA1_Y413], the enrichment score was inactive: 1.23.
In the case of VSNFNYFFHRE [KCNA1_Y413_YF], the enrichment score is reported as inactive: 1.58.
With DPYHVYIKNRV [KCNE3_Y95] the enrichment score was inactive: 0.752.
For DPFHVYIKNRV [KCNE3_Y95_YF], the enrichment score was inactive: 0.909.
In the case of SQGRQYQELPR [KCNH2_Y1009_R1005Q], the enrichment score is reported as inactive: 0.628.
With SRGHQYQELPR [KCNH2_Y1009_R1007H] the enrichment score was inactive: 0.527.
With NFRTIYVNANE [KCNH2_Y475_T474I] the enrichment score was active: 7.72.
In the case of NFRTTYINANE [KCNH2_Y475_V476I], the enrichment score is reported as inactive: 2.39.
In the case of NFRTTCVNANE [KCNH2_Y475_Y475C], the enrichment score is reported as inactive: 0.706.
With SIKDKYVTVLF [KCNH2_Y611_A614V_YF] the enrichment score was active: 6.28.
For SIKGKYVTALY [KCNH2_Y611_D609G], the enrichment score was inactive: 0.77.
For SIKNKYVTALY [KCNH2_Y611_D609N], the enrichment score was inactive: 0.689.
In the case of SIKDKYVTAFF [KCNH2_Y611_L615F_YF], the enrichment score is reported as active: 4.08.
In the case of SIKDKYVTAVY [KCNH2_Y611_L615V], the enrichment score is reported as inactive: 0.598.
In the case of SIKDKYLTALF [KCNH2_Y611_V612L_YF], the enrichment score is reported as inactive: 0.934.
SIKDKHVTALY [KCNH2_Y611_Y611H] was tested, and the enrichment score was inactive: 0.494.
For SIKDKHVTALF [KCNH2_Y611_Y611H_YF], the enrichment score was inactive: 0.403.

These binders were tested against SHP2 N-SH2 domain T52S in the same assay as above. Settings: peptide library: pTyr-Var.
In the case of RGDTVYTVNCM [KBTBD13_Y404_R408C], the enrichment score is reported as inactive: 1.08.
VVQGLYKSMPK [KBTBD2_Y250] was tested, and the enrichment score was inactive: 0.877.
In the case of VSNFNYFYHRE [KCNA1_Y413], the enrichment score is reported as inactive: 1.21.
For VSNFNYFFHRE [KCNA1_Y413_YF], the enrichment score was inactive: 1.71.
For DPYHVYIKNRV [KCNE3_Y95], the enrichment score was inactive: 0.832.
In the case of DPFHVYIKNRV [KCNE3_Y95_YF], the enrichment score is reported as inactive: 1.07.
SQGRQYQELPR [KCNH2_Y1009_R1005Q] was tested, and the enrichment score was inactive: 0.44.
SRGHQYQELPR [KCNH2_Y1009_R1007H] was tested, and the enrichment score was inactive: 0.593.
In the case of NFRTIYVNANE [KCNH2_Y475_T474I], the enrichment score is reported as inactive: 1.91.
NFRTTYINANE [KCNH2_Y475_V476I] was tested, and the enrichment score was inactive: 0.826.
In the case of NFRTTCVNANE [KCNH2_Y475_Y475C], the enrichment score is reported as inactive: 0.652.
For SIKDKYVTVLF [KCNH2_Y611_A614V_YF], the enrichment score was active: 6.34.
With SIKGKYVTALY [KCNH2_Y611_D609G] the enrichment score was inactive: 0.673.
With SIKNKYVTALY [KCNH2_Y611_D609N] the enrichment score was inactive: 0.905.
For SIKDKYVTAFF [KCNH2_Y611_L615F_YF], the enrichment score was active: 7.75.
SIKDKYVTAVY [KCNH2_Y611_L615V] was tested, and the enrichment score was inactive: 0.733.
SIKDKYLTALF [KCNH2_Y611_V612L_YF] was tested, and the enrichment score was inactive: 1.27.
With SIKDKHVTALY [KCNH2_Y611_Y611H] the enrichment score was inactive: 0.642.
In the case of SIKDKHVTALF [KCNH2_Y611_Y611H_YF], the enrichment score is reported as inactive: 0.483.

Each binder was assayed against SHP2 N-SH2 domain wild-type in the same assay as above. Settings: peptide library: pTyr-Var.
For RGDTVYTVNCM [KBTBD13_Y404_R408C], the enrichment score was inactive: 1.35.
For VVQGLYKSMPK [KBTBD2_Y250], the enrichment score was inactive: 0.933.
VSNFNYFYHRE [KCNA1_Y413] was tested, and the enrichment score was inactive: 1.19.
For VSNFNYFFHRE [KCNA1_Y413_YF], the enrichment score was inactive: 1.46.
In the case of DPYHVYIKNRV [KCNE3_Y95], the enrichment score is reported as inactive: 0.76.
With DPFHVYIKNRV [KCNE3_Y95_YF] the enrichment score was inactive: 0.827.
SQGRQYQELPR [KCNH2_Y1009_R1005Q] was tested, and the enrichment score was inactive: 0.573.
In the case of SRGHQYQELPR [KCNH2_Y1009_R1007H], the enrichment score is reported as inactive: 0.881.
NFRTIYVNANE [KCNH2_Y475_T474I] was tested, and the enrichment score was inactive: 1.75.
NFRTTYINANE [KCNH2_Y475_V476I] was tested, and the enrichment score was inactive: 0.877.
In the case of NFRTTCVNANE [KCNH2_Y475_Y475C], the enrichment score is reported as inactive: 1.09.
In the case of SIKDKYVTVLF [KCNH2_Y611_A614V_YF], the enrichment score is reported as inactive: 2.29.
For SIKGKYVTALY [KCNH2_Y611_D609G], the enrichment score was inactive: 0.678.
With SIKNKYVTALY [KCNH2_Y611_D609N] the enrichment score was inactive: 0.772.
SIKDKYVTAFF [KCNH2_Y611_L615F_YF] was tested, and the enrichment score was active: 3.24.
In the case of SIKDKYVTAVY [KCNH2_Y611_L615V], the enrichment score is reported as inactive: 0.758.
In the case of SIKDKYLTALF [KCNH2_Y611_V612L_YF], the enrichment score is reported as inactive: 1.14.
With SIKDKHVTALY [KCNH2_Y611_Y611H] the enrichment score was inactive: 0.692.
SIKDKHVTALF [KCNH2_Y611_Y611H_YF] was tested, and the enrichment score was inactive: 0.524.
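Note: displayed peptides selected on beads carrying the immobilized SH2 domain, with library peptides lacking any tyrosine serving as negative controls.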
